The campaign covered roughly 410,000 compounds. About 530 (0.13%) were called active. The shares of active, inactive and inconclusive entries below differ from those in the screen. The call rests on the fitted dose curve; in most records, active means well fitted inhibition curve with a large enough effect; inconclusive means small, poorly fitted or top-dose-only effect, or another doubt; inactive means no such curve, though single readings can be large or run the other way. Potencies of inconclusive entries are doubtful fits and often do not repeat.
Test: qHTS of GLP-1 Receptor Inverse Agonists: Cytotox Screen
Details: HEK293 cAMP-luciferase reporter cells, luminescence, 24 h; activity change, negative = inhibition: at 38.3 µM (top of the series) unless noted
Summary of the method: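 1536-well qHTS counterscreen of the MLSMR; 200 cells/uL, 12 h pre-incubation, 23 nL cpd, 24 h at 37 deg C 5% CO2, luciferase detection reagent, 12 min RT, luminescence. Inhibition = undesired.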
On the % scale 0 is the no-effect control and ±100 the full control effect; potency means the concentration at half of the fitted maximal effect.

**Q.** For `O=C(Nc1nccs1)c1sc2ccccc2c1Cl`, which Potency is on record?
**A.** inconclusive: 28.2 µM [inhibitor, single point]

**Q.** For `CCC(=O)N1CCc2cc(CNC(=O)c3ccccc3C)ccc21`, which “activity change, negative = inhibition” value is on record?
**A.** inactive: 2.98%

**Q.** For `Cc1ccc(C)c(S(=O)(=O)NCCOc2nc(NC(C)C)nc(NC(C)C)n2)c1`, which Potency is on record?
**A.** inconclusive: 5.01 µM [inhibitor, full curve, poor fit]

**Q.** Which “activity change, negative = inhibition” value does the source give for `O=C(C1CCC(Cn2c(=O)c3sccc3n(Cc3ccccc3)c2=O)CC1)N1CCOCC1` (stereo unspecified) here?
**A.** inactive: 17.1%

**Q.** Which Potency does the source give for `CCOc1ccc(-c2cnc(NCc3cccc4ccccc34)n2CCOC)cc1` here?
**A.** inconclusive: 22.4 µM [inhibitor, single point]

**Q.** Which Potency does the source give for `O=[N+]([O-])c1ccc(/C=N/Nc2nc(N3CCCC3)nc(N3CCCC3)n2)o1` here?
**A.** inconclusive: 28.2 µM [inhibitor, single point]

**Q.** For `CCNc1nc(NCC)nc(N/N=C/c2ccc([N+](=O)[O-])o2)n1`, which Potency is on record?
**A.** inconclusive: 20 µM [inhibitor, single point]

**Q.** Which Potency does the source give for `Cc1cc(C)c2c(NC(=O)CCl)nn(C)c2n1` here?
**A.** inconclusive: 22.4 µM [inhibitor, single point]

**Q.** Which “activity change, negative = inhibition” value does the source give for `Cc1ccc(C)c(C(=O)CSc2nnnn2C(C)C)c1` here?
**A.** inactive: 30.6%

**Q.** For `COc1ccc(NC(=O)c2ccc3c(=O)n(-c4ccc(OC)cc4OC)c(=S)[nH]c3c2)c(OC)c1`, which activity change, negative = inhibition is on record?
**A.** inactive: 1.62% [at 7.66 µM]

**Q.** Which “activity change, negative = inhibition” value does the source give for `CC(Nc1nc(-c2ccc(F)cc2)cs1)c1nc2cc(C(F)(F)F)ccc2n1CCCO` (stereo unspecified) here?
**A.** inactive: -8.51%

**Q.** Which “activity change, negative = inhibition” value does the source give for `COc1ccc(C2=CC(=O)OC3(CCCCC3)O2)cc1` here?
**A.** inactive: 0.359%

**Q.** With `COc1ccc(CNS(=O)(=O)c2cc3c(cc2Cl)N(C(C)=O)CCO3)cc1` as the compound, how does the “activity change, negative = inhibition” value read?
**A.** inactive: -2.32%

**Q.** With `COc1cccc(CN(C)CC2CCCN(CCc3ccc(Cl)cc3)C2)c1OC` (stereo unspecified) as the compound, how does the Potency read?
**A.** inconclusive: 20 µM [inhibitor, single point]

**Q.** With `C=CCC(CC(O)COCCC)C(=O)NNC(=S)Nc1ccccc1` (stereo unspecified) as the compound, how does the Potency read?
**A.** inconclusive: 0.708 µM [inhibitor, full curve]

**Q.** For `COc1ccc(NC(=O)CSc2nc(-c3cc(OC)c(OC)c(OC)c3)[nH]c2-c2ccc(F)cc2)cc1`, which “activity change, negative = inhibition” value is on record?
**A.** inactive: -28%

**Q.** With `O=C(c1nnsc1S(=O)c1ccc(Cl)cc1)N1CCOCC1` (stereo unspecified) as the compound, how does the Potency read?
**A.** inconclusive: 28.2 µM [inhibitor, single point]

**Q.** For `Cc1cccc(NCc2ccc([N+](=O)[O-])s2)c1`, which Potency is on record?
**A.** inconclusive: 14.1 µM [inhibitor, single point]

**Q.** With `O=[N+]([O-])c1ccccc1S(=O)c1ccccc1[N+](=O)[O-]` as the compound, how does the Potency read?
**A.** inconclusive: 3.16 µM [inhibitor, partial curve]

**Q.** Which “activity change, negative = inhibition” value does the source give for `CC(NC(=O)COC(=O)C12CC3CC(CC(O)(C3)C1)C2)c1ccccc1` (stereo unspecified) here?
**A.** inactive: -2.37%

**Q.** With `Cc1ccc(-c2nn(-c3cc(N4CCNCC4)ccc3[N+](=O)[O-])c(=O)c3ccccc23)cc1` as the compound, how does the Potency read?
**A.** inconclusive: 7.94 µM [inhibitor, partial curve, poor fit]

**Q.** Which Potency does the source give for `O=C(C#Cc1ccccc1)Nc1cccc(F)c1` here?
**A.** inconclusive: 20 µM [inhibitor, single point]

**Q.** For `CCN(c1ccccc1)S(=O)(=O)c1c(C)nc2scc(C)n2c1=O`, which “activity change, negative = inhibition” value is on record?
**A.** inactive: 13.8%

**Q.** Which Potency does the source give for `Oc1ccccc1/C=N/Nc1nccnc1Cl` here?
**A.** inconclusive: 1.26 µM [inhibitor, full curve, poor fit]

**Q.** With `CCCS(=O)(=O)NC(=O)C1(C)CCCN(C(=O)c2cncc(Br)c2)C1` (stereo unspecified) as the compound, how does the “activity change, negative = inhibition” value read?
**A.** inactive: 0.356%

**Q.** With `CCCN(CC(=O)Nc1ccccc1OC)C(=O)CC1CCCC1` as the compound, how does the “activity change, negative = inhibition” value read?
**A.** inactive: 14.2%

**Q.** With `O=C1/C(=C\c2ccc(O)c(O)c2)N=C2CCCCCN12` as the compound, how does the Potency read?
**A.** inconclusive: 22.4 µM [inhibitor, partial curve, poor fit]

**Q.** With `CCN1CCN(c2nc(Nc3cccc(OC)c3)nc(N)c2[N+](=O)[O-])CC1` as the compound, how does the Potency read?
**A.** inconclusive: 0.355 µM [inhibitor, full curve, poor fit]

**Q.** For `COc1ccccc1CCn1cnc2c3cc(C)ccc3n(C)c2c1=O`, which “activity change, negative = inhibition” value is on record?
**A.** inactive: -0.56%

**Q.** For `Cc1ccc(Cl)cc1N1CCN(c2nc3ccccc3c3nc(-c4cccnc4)nn23)CC1`, which “activity change, negative = inhibition” value is on record?
**A.** inactive: 2.1%

**Q.** For `O=S(Cc1ccccc1)CC(O)(c1ccc(Cl)cc1)c1ccc(Cl)cc1` (stereo unspecified), which Potency is on record?
**A.** inconclusive: 28.2 µM [inhibitor, single point]

**Q.** With `C[C@@H]1CN([C@@H](C)CO)C(=O)CCCn2cc(nn2)CO[C@H]1CN(C)S(=O)(=O)c1ccc2c(c1)OCCCO2` as the compound, how does the “activity change, negative = inhibition” value read?
**A.** inactive: 2.42%

**Q.** Which “activity change, negative = inhibition” value does the source give for `N#Cc1ccc(-c2ccco2)nc1SCc1ccccc1` here?
**A.** inactive: -1.2%

**Q.** Which Potency does the source give for `CC1=CC(C)(C)NC(=S)N1c1ccc(C)cc1C` here?
**A.** inconclusive: 20 µM [inhibitor, single point]

**Q.** Which “activity change, negative = inhibition” value does the source give for `COc1ccc(-n2cc(-c3ccccc3)c3c(=O)[nH]cnc32)cc1` here?
**A.** inactive: 10.6%

**Q.** For `Cc1sc2ncnc(N3CCC(C(=O)NNC(=O)COc4ccccc4Cl)CC3)c2c1C`, which Potency is on record?
**A.** inconclusive: 20 µM [inhibitor, single point]

**Q.** With `O=C(Nc1ccccc1)Nc1ccc(Cl)c(S(=O)(=O)N2CCOCC2)c1` as the compound, how does the “activity change, negative = inhibition” value read?
**A.** inactive: -17%

**Q.** With `COc1ccc(-c2ccc(-c3noc(C)n3)c(OC)n2)cc1` as the compound, how does the “activity change, negative = inhibition” value read?
**A.** inactive: 0.627%

**Q.** With `O=C(c1ccco1)N1CCCC(c2nc3c(nnn3Cc3c(Cl)cccc3Cl)c(=O)[nH]2)C1` (stereo unspecified) as the compound, how does the Potency read?
**A.** inconclusive: 12.6 µM [inhibitor, single point]

**Q.** Which Potency does the source give for `COC(=O)c1ccc(CCc2cc(O)ccc2O)cc1` here?
**A.** active: 10 µM

**Q.** For `O=C1CC(c2ccccc2)CC(O)=C1C=NCc1ccccc1` (stereo unspecified), which Potency is on record?
**A.** inconclusive: 28.2 µM [inhibitor, single point]

**Q.** For `N/C(Cc1ccc(Cl)cc1)=N\OC(=O)c1ccccc1`, which Potency is on record?
**A.** inconclusive: 20 µM [inhibitor, single point]

**Q.** With `Cc1cc(C)n(-c2nc3ccccc3nc2Nc2ccc3[nH]c(=O)[nH]c3c2)n1` as the compound, how does the Potency read?
**A.** inconclusive: 31.6 µM [inhibitor, single point]

**Q.** Which Potency does the source give for `CCCSC1=N/C(=C\c2ccc([N+](=O)[O-])o2)C(=O)S1` here?
**A.** inconclusive: 14.1 µM [inhibitor, single point]

**Q.** For `Cc1nn(-c2ccccc2)c(C)c1C(=O)Nc1nnc(-c2ccco2)o1`, which Potency is on record?
**A.** inconclusive: 3.16 µM [inhibitor, partial curve, poor fit]

**Q.** With `COC(=O)c1ccc(CSc2c(C(C)C)cnc3c2c(=O)n(C)c(=O)n3C)cc1` as the compound, how does the “activity change, negative = inhibition” value read?
**A.** inactive: -10.9%

**Q.** With `Cc1ccc(-c2cc(C(=O)N3CCN(c4ccccc4O)CC3)c3ccccc3n2)cc1` as the compound, how does the Potency read?
**A.** inconclusive: 11.2 µM [inhibitor, single point]

**Q.** With `O=C(NCCNC(=O)c1cc(OCC(F)(F)F)ccc1OCC(F)(F)F)Nc1cccc(C(F)(F)F)c1` as the compound, how does the Potency read?
**A.** inconclusive: 12.6 µM [inhibitor, single point]

**Q.** For `CC(C)CNC(=O)C1CCN(Cc2ccc(OCc3ccccc3)cc2)CC1`, which Potency is on record?
**A.** inconclusive: 31.6 µM [inhibitor, single point]

**Q.** With `Cc1cc(C)c(OCC(=O)N/N=C/c2ccc3c(c2)OCO3)c(C)c1` as the compound, how does the Potency read?
**A.** inconclusive: 5.62 µM [inhibitor, full curve, poor fit]

**Q.** For `CCOc1ccc(NC(=O)Cn2c(=O)n(CCCCC(=O)NCCc3ccc(Cl)cc3)c(=O)c3ccccc32)cc1`, which “activity change, negative = inhibition” value is on record?
**A.** inactive: -0.239%

**Q.** Which “activity change, negative = inhibition” value does the source give for `Cc1ccc(OCc2cc(C(=O)N3CCN(c4ccccc4)CC3)no2)cc1C` here?
**A.** inactive: 5.24%

**Q.** Which Potency does the source give for `CCCOc1c(OC)cccc1C1CC(=O)Nc2cc3c(cc21)OCCO3` (stereo unspecified) here?
**A.** inconclusive: 5.01 µM [inhibitor, partial curve]

**Q.** For `CCCCNC(=O)c1onc(CSc2ccc(F)c(F)c2)c1C(=O)NCCCC`, which Potency is on record?
**A.** inconclusive: 11.2 µM [inhibitor, single point]

**Q.** With `COC(=O)c1ccccc1NC(=O)c1cccc(NC(=O)c2ccc(Br)o2)c1C` as the compound, how does the Potency read?
**A.** inconclusive: 10 µM [inhibitor, partial curve, poor fit]

**Q.** Which Potency does the source give for `COc1ccc(N=Cc2c(O)[nH]c3ccccc23)cc1OC` here?
**A.** inconclusive: 7.94 µM [inhibitor, partial curve]

**Q.** For `CN(C)CCCN(C(=O)c1ccc(S(=O)(=O)N2CCCC2)cc1)c1nc2ccc(Br)cc2s1`, which Potency is on record?
**A.** inconclusive: 28.2 µM [inhibitor, single point]

**Q.** For `CCOC(=O)C1=C(CC)Nc2ccccc2N=C1NC(=O)Nc1ccc(Cl)c(Cl)c1`, which Potency is on record?
**A.** inconclusive: 12.6 µM [inhibitor, partial curve, poor fit]

**Q.** For `Cc1ccc2c(CN3CCC(C)CC3)cc(=O)oc2c1`, which “activity change, negative = inhibition” value is on record?
**A.** inactive: -4.77%

**Q.** For `CCN(CC)c1ccc(NC(=O)Nc2ccccc2C(F)(F)F)cc1`, which Potency is on record?
**A.** inconclusive: 28.2 µM [inhibitor, single point]

**Q.** With `NS(=O)(=O)c1ccc(N/N=C/c2ccc(O)c(O)c2O)c([N+](=O)[O-])c1` as the compound, how does the Potency read?
**A.** inconclusive: 22.4 µM [inhibitor, single point]

**Q.** For `Clc1cccc(CNc2ccn3nc(-c4cccc(OCc5ccccc5)c4)cc3n2)c1`, which Potency is on record?
**A.** inconclusive: 14.1 µM [inhibitor, single point]

**Q.** Which “activity change, negative = inhibition” value does the source give for `O=C1CCCN1CCC1CCN(C2CC(=O)N(c3ccc(Cl)cc3)C2=O)CC1` (stereo unspecified) here?
**A.** inactive: 12.3%

**Q.** With `O=C(NC(=S)Nc1ccc(N2CCCC2)cc1)c1ccc(F)cc1` as the compound, how does the Potency read?
**A.** inconclusive: 3.16 µM [inhibitor, single point]

**Q.** With `N#CNC(=Nc1cccc(F)c1)SCc1ccccc1F` as the compound, how does the “activity change, negative = inhibition” value read?
**A.** inactive: -29.5%

**Q.** With `CC(C)(C)c1cc(C(=O)N/N=C/c2ccc(O)cc2)n(-c2ccccc2)n1` as the compound, how does the “activity change, negative = inhibition” value read?
**A.** inactive: 8.66%

**Q.** Which “activity change, negative = inhibition” value does the source give for `COc1ccc(CC(=O)NCC(c2cccs2)S(=O)(=O)c2ccc(Cl)cc2)cc1` (stereo unspecified) here?
**A.** inactive: 3.18%

**Q.** Which Potency does the source give for `O=C(CN1CCN(C2CCCCC2)CC1)Nc1ccccc1N1CCCCC1` here?
**A.** inconclusive: 28.2 µM [inhibitor, single point]

**Q.** Which Potency does the source give for `Cc1ccc(NC(=S)/N=C(\N)Nc2nc(C)c3ccccc3n2)cc1C` here?
**A.** inconclusive: 11.2 µM [inhibitor, single point]

**Q.** Which Potency does the source give for `O=C(CNC(=O)c1ccccc1F)NCCOc1cccc(Cl)c1Cl` here?
**A.** inconclusive: 11.2 µM [inhibitor, single point]

**Q.** For `CCOC(=O)CN=C1CC(C)(C)CC2=C1Sc1ncnc(N(C)C)c1N2`, which “activity change, negative = inhibition” value is on record?
**A.** inactive: 6.81%
